According to PubChem BioAssay AID1477 (National Center for Advancing Translational Sciences (NCATS), 2009):
Several values for one entry are separate records, joined by “and”; a condition that tells them apart may be missing. Equal entries are not always repeated. The whole screen tested about 230,000 compounds, of which fewer than 10 were called active. Inconclusive means that the source gave no clear call. Such entries were picked first, then a sample of the others. The call rests on the fitted dose curve; in most records, active means well fitted curve in the direction sought with a large enough effect; inconclusive means small, poorly fitted or top-dose-only effect, or effect the other way, or another doubt; inactive means no such curve, though single readings can be large or run the other way. No potency is given beside an inconclusive call; the fits are too rough.

Molecular target: Runt-related transcription factor 1 (Homo sapiens) + Core-binding factor subunit beta (Homo sapiens) (UniProt Q01196+Q13951)
Test: qHTS Assay for Compounds Blocking the Interaction Between CBF-beta and RUNX1 for the Treatment of Acute Myeloid Leukemia; on activity, negative = inhibition: % of control where 0% means no effect
Settings: AlphaScreen CBFb-His/RUNX1-biotin binding, biochemical; activity, negative = inhibition: at 59.8 µM (top of the series) unless noted
In short: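 Inhibition was taken as any reduction in AlphaScreen signal from the CBF-beta–RUNX1 pair (His and biotin tags, 30 nM each), measured after compound (15 min) and bead (90 min) incubations at room temperature.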

Sequence of UniProt Q01196 (Q01196 whole entry, looked up): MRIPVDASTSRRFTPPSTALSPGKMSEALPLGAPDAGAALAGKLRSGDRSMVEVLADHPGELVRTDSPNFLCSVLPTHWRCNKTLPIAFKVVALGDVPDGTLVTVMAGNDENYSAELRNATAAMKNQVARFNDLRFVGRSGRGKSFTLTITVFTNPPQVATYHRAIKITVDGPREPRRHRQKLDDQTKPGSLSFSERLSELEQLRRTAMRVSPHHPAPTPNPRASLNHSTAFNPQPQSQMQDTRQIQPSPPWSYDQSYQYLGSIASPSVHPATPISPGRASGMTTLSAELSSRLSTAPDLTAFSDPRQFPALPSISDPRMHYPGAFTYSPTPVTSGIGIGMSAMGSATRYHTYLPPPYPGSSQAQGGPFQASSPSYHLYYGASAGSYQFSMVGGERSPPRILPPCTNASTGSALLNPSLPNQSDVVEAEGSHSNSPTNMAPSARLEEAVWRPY
Sequence of UniProt Q01196 (Q13951 whole entry, looked up): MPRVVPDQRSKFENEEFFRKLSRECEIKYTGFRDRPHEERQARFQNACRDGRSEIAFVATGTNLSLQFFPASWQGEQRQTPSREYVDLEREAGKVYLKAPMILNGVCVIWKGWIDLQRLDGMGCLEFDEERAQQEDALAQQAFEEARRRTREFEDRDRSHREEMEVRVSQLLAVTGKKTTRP

Compound	Potency	activity, negative = inhibition
Cc1ccc(NC2=C(C(=O)c3ccccc3)N(C)S(=O)(=O)c3ccccc32)cc1	inconclusive [inhibitor, partial curve]	
Cc1ccccc1C(=O)Nc1ccccc1Sc1ccccc1	inconclusive [activator, single point]	
Cc1cc(C)c(-c2noc(C(=O)OC(C)(C)C)c2C(=O)OC(C)(C)C)c(C)c1		inactive: 0.273%
Cc1ccc(S(=O)(=O)n2nccc2-c2c(-c3ccc(Cl)cc3)noc2C)cc1	inconclusive [activator, partial curve, poor fit]	
O=C(NCc1ccccc1)c1ccccc1CO	inconclusive [activator, single point]	
CCOC(=O)c1c(C)oc2cc(Br)c(OC(C)C(=O)OCC)cc12 (configuration not stated)	inconclusive [activator, partial curve]	
CCOCC(=O)Nc1sc2c(c1C(=O)OCC)CCCC2	inconclusive [activator, full curve, poor fit]	
Cc1ccc(-c2cc(C(=O)NCc3cnn(C)c3)c3cc(Br)ccc3n2)cc1		inactive: 4.4%
O=C(OCC#CCSc1nnc(-c2ccccc2)o1)c1ccco1	inconclusive [inhibitor, single point]	
COCc1cc(C)nc(OCC(=O)N/N=C/c2ccc(O)cc2O)c1C#N	inconclusive [inhibitor, single point]	
COC(=O)C1=C(C)N(Cc2ccccc2)[C@]23O[C@](C(=O)OC)(C(=O)N2C1c1ccccc1)C(c1ccccc1)C3C(=O)c1ccccc1 (some centres not stated)		inactive: 11.3% [at 13.1 µM] and inactive: 14.2% [at 13.1 µM]
Cc1cccc(OCC(=O)O/N=C(\N)Cc2ccc(Cl)cc2)c1	inconclusive [activator, single point]	
CCN(CC(=O)Nc1ccc(Br)c(C)c1)CC(=O)NC(C)C		inactive: 12.7%
Nc1ccc(S(N)(=O)=O)cc1N	inconclusive [inhibitor, single point]	
O=C(/C=C/c1ccco1)Nc1cccc(C(=O)Nc2ccccc2C(=O)O)c1	inconclusive [inhibitor, single point]	
CC(Oc1ccc(Cl)cc1)c1ccnn1S(=O)(=O)c1ccc(Cl)cc1 (configuration not stated)	inconclusive [activator, partial curve]	
CC(C)[C@H](NC(=O)c1ccco1)C(=O)OCc1cc(=O)n2c(n1)sc1ccccc12	inconclusive [inhibitor, single point]	
S=c1[nH]nc(COc2ccccc2)n1/N=C/c1cccs1		inactive: -4.13%
COc1ccc2oc(C)c(C(=O)c3ccc([N+](=O)[O-])cc3)c2c1	inconclusive [inhibitor, partial curve]	
CNC(=O)c1cc2cc(OC)ccc2oc1=N		inactive: 9.03%
C=CCN1CCN(c2nc3ccccc3nc2C#N)CC1	inactive	
CCN1CC2=C(OC(N)=C(C#N)C2c2ccccc2)/C(=C\c2ccccc2)C1 (configuration not stated)		inactive: -9.68%
CCSc1nnc(NC(=O)c2ccc(S(=O)(=O)N(C)C)cc2)s1	inconclusive [inhibitor, single point]	

Compound	Potency	activity, negative = inhibition
COc1cccc(C(=O)/C=C/c2ccc(N3CCCCC3)c([N+](=O)[O-])c2)c1	inconclusive [inhibitor, single point]	
CN(C)/C=C/C(=O)c1cc(F)cc(C(F)(F)F)c1		inactive: 1.8%
CO[C@H]1C=CO[C@@]2(C)Oc3c(C)c(O)c4c(O)c(c(C=NN5CCN(C6CCCC6)CC5)c(O)c4c3C2=O)NC(=O)C(C)=CC=C[C@H](C)[C@H](O)[C@@H](C)[C@@H](O)[C@@H](C)[C@H](OC(C)=O)[C@@H]1C	inconclusive [inhibitor, single point]	
CCN(CC)c1ccc([N+](=O)[O-])c2cccnc12	inconclusive [inhibitor, single point]	
CSCC[C@H](NC(=O)c1nn(C)c(=O)c2ccccc12)c1nc2ccccc2[nH]1		inactive: -1.79%
O=C(NC(=S)Nc1ccc(N2CCOCC2)cc1)c1cccc(Cl)c1	inconclusive [inhibitor, single point]	
N#C/C(=C\c1ccc(C(=O)O)cc1)S(=O)(=O)c1cc(Br)ccc1Br	inconclusive [activator, full curve, poor fit]	
CN(C)c1ccc(-c2cc([C@H]3[C@@H]4C=CCC[C@@]4(C)C(=O)N3Cc3ccccc3)ccc2F)cc1	inconclusive [inhibitor, single point]	
Cc1cc(Br)cc(C)c1NC(=O)c1ccccc1[N+](=O)[O-]	inconclusive [inhibitor, partial curve]	
O=C1/C(=C\c2ccco2)SC(=S)N1C1CCS(=O)(=O)C1 (configuration not stated)	inconclusive [inhibitor, single point]	
Cc1cc(=O)oc2cc(OCC(=O)OCC(=O)Nc3c(C)n(C)n(-c4ccccc4)c3=O)ccc12	inconclusive [inhibitor, single point]	
CC(=O)NS(=O)(=O)c1ccc(N=c2ssc3c2-c2cc(C)c(C)cc2NC3(C)C)cc1	inconclusive [inhibitor, single point]	
CN(C)S(=O)(=O)c1cccc(NC(=S)NCCc2ccccn2)c1		inactive: -7.41%
C#CC[N+](C)(C)CCCCCCCCCCCC		inactive: -0.394%
COCC(=O)NC1CCN(CC(=O)Nc2ccccc2[N+](=O)[O-])CC1		inactive: -4.22%
CCOc1ccc(N2C(=O)CC(SCc3nc4ccccc4[nH]3)C2=O)cc1 (configuration not stated)		inactive: 18.7%
CCN(CC)C(=O)Oc1ccc(Br)cc1C(=O)Nc1ccc(F)cc1F		inactive: 11.8%
OCC1(CCc2ccccc2)CCN(Cc2ccccc2Cl)CC1		inactive: -9.61%
COC(=O)c1sccc1N/N=C/c1ccc(OC)c(OC)c1OC	inconclusive [activator, partial curve]	
COC(=O)c1cccc(Cn2c(Cl)c(/C=N/Nc3ccccc3C)sc2=O)c1	inconclusive [inhibitor, single point]	
O=C(CCS(=O)(=O)c1ccc(Br)s1)Nc1ccccc1Br	inconclusive [inhibitor, full curve]	
CCCCC/C=C\C/C=C\C/C=C\C/C=C\CCCC(=O)NCC(=O)O	inconclusive [inhibitor, partial curve]	
COc1ccccc1-n1c(SCC(=O)c2ccc(O)cc2O)nc2cc([N+](=O)[O-])ccc21	inconclusive [inhibitor, single point]	

Compound	Potency	activity, negative = inhibition
Nc1ccc(NC(=O)c2ccc(C(=O)Nc3ccc(N)cc3)cc2)cc1	inconclusive [activator, single point]	
COc1ccc(N2CCN(Cc3nc(N)nc(Nc4ccc(C)c(Cl)c4)n3)CC2)cc1	inconclusive [inhibitor, single point]	
Cc1cc(=O)oc2cc(OCC(=O)OC(C)C(=O)NC3CCCC3)ccc12 (configuration not stated)	inconclusive [activator, single point]	
CCOC(=O)CSC1=C(C#N)C(c2ccc(Cl)cc2)C(C(=O)OC)C(=O)N1 (configuration not stated)		inactive: 4.4%
Cc1cc(F)c(F)c(C(=O)N2CCOCC2)c1Cl		inactive: 2.13%
COc1ccc(OC)c(-n2c(=S)[nH]c3cc(C(=O)N(C)Cc4ccccc4)ccc3c2=O)c1		inactive: -15%
O=c1[nH]c2cc(NCCO)c([N+](=O)[O-])cc2[nH]1		inactive: -1.72%
O=c1c2c3c(sc2n(CCN2CCCCC2)c(=O)n1Cc1ccco1)CCCCC3		inactive: -3.81%
CCOC(=O)/C(C#N)=C/c1c(N2CCN(Cc3ccc4c(c3)OCO4)CC2)nc2c(C)cccn2c1=O	inconclusive [inhibitor, single point]	
O=C(Nc1ccc(C(=O)Nc2ccc(C(=O)Nc3ccc(S(=O)(=O)O)c4cc(S(=O)(=O)O)cc(S(=O)(=O)O)c34)cc2)cc1)Nc1ccc(C(=O)Nc2ccc(C(=O)Nc3ccc(S(=O)(=O)O)c4cc(S(=O)(=O)O)cc(S(=O)(=O)O)c34)cc2)cc1	inconclusive [inhibitor, partial curve]	
c1ccc(Cc2nnc3sc(-c4cccs4)nn23)cc1	inconclusive [activator, single point]	
Cc1cccc(NC(=O)c2ccc(-n3cccn3)c([N+](=O)[O-])c2)c1		inactive: 1.87%
CN1C(=O)C(=Cc2ccc(OCCN(C)c3ccccn3)cc2)C(=O)N(C)C1=O		inactive: -5.53%
CCOc1ccc(-n2c(C)c(C(=O)OC)c3cc(O)ccc32)cc1	inconclusive [inhibitor, single point]	
Cc1nn(C)c(C(=O)NNC(=S)NCC(C)C)c1Cl		inactive: -2.16%
Cc1ccc(N2N=C(c3ccc(F)cc3)CC2c2ccco2)cc1 (configuration not stated)	inconclusive [activator, partial curve]	
CCN(CC)c1ccc(NC(=O)COC(=O)c2ccc3ccccc3n2)cc1	inconclusive [inhibitor, single point]	
CCOc1ccc2nc(SCc3ccccc3C#N)sc2c1	inconclusive [activator, single point]	
O=C(O)c1cc2cc(Cl)ccc2[nH]1	inconclusive [inhibitor, single point]	
N#C/C(C(N)=O)=c1/ccc2c(c1)N1C3=C(CCCC3)CC3CCCCC31N=2 (configuration not stated)	inconclusive [inhibitor, full curve, poor fit]	
O=c1[nH][nH]c2cc(=O)n(-c3ccc(Cl)cc3)nc12	inconclusive [inhibitor, full curve, poor fit]	
